# Measured values published in the supplement of paper PMC10126150.
# Sequences with one replicate were seen in a single cluster, so their values are uncertain.
# Test system: ATP
# Assay: switch fluorescence ratio, 500 uM ATP over buffer (Cy3 cluster intensity, sum of 5 cycles each) (fold (ratio)); higher = stronger signal-on switching upon ATP binding; sequences stand for … in TCGTCGGCAGCGTCAGATGTGTATAAGAGACAGTTTTTTTTTTTTTTTTTTTTTTTTT…TC
# Settings: aptamer strand: ATP DNA aptamer (quencher-CACCTGGGGGAGTATTGCGGAGGAAGG + anchor), 100 nM annealed; ATP concentration: 500 uM; one replicate
# Outline: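 Values give the fluorescence ratio for each switch-domain sequence, averaged from per-cluster ratios of summed target-cycle to summed buffer-cycle Cy3 intensity. The Cy3-labelled switching-strand clusters sat on a modified Illumina MiSeq flow-cell, were annealed to 100 nM quencher-labelled ATP aptamer, and were imaged in selection buffer, then after 15 min with 500 uM ATP at 22 °C. Five cycles ran with NaOH stripping and re-annealing between them, and clusters outside 100-1000 RFU were excluded.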
# 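Note: ATP exposure 15 min at 22 °C before imaging.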
row,Sequence,switch fluorescence ratio
1,AACGAAAATT,0.984
2,AACGACACTT,1.65
3,AACGACCGAG,1.1
4,AACGACGTTC,1.05
5,AACGACGTTG,1.01
6,AACGAGGTTG,0.994
7,AACGAGTTCG,0.991
8,AACGATGGTG,0.961
9,AACGATTCAT,1.05
10,AACGCATGGT,1.05
11,AACGCGAGAT,2.31
12,AACGCGCGGG,0.984
13,AACGCTCCTC,1.32
14,AACGCTG,0.977
15,AACGCTTTGG,1.35
16,AACGGAATTA,1.05
17,AACGGATA,1.04
18,AACGGATGCA,1.04
19,AACGGATTAA,1.06
20,AACGGCAAA,1.08
21,AACGGCATGA,1.04
22,AACGGCCACA,1.1
23,AACGGCCGGT,1.02
24,AACGGGCTGT,0.977
25,AACGGGGGTT,1.35
26,AACGGTACAC,1.49

row,Sequence,switch fluorescence ratio
1,AACGGTGT,0.98
2,AACGGTGTAA,0.981
3,AACGGTTTCG,1.49
4,AACGGTTTT,1.03
5,AACGTACAGT,1.52
6,AACGTCCGGC,0.963
7,AACGTGAGA,1.02
8,AACGTGCGAA,1.01
9,AACGTGGAAT,1.01
10,AACGTGGGAT,0.923
11,AACTAAAGAA,1.01
12,AACTAAGATT,1.02
13,AACTAGAAGG,0.944
14,AACTAGTCCC,1.05
15,AACTAGTGTA,0.966
16,AACTAGTTAA,1.01
17,AACTATACTA,1.14
18,AACTATAGGG,0.991
19,AACTATGAGA,1.04
20,AACTATTGCA,0.963
21,AACTCAGTTC,0.999
22,AACTCCTGCA,1.97
23,AACTCTACAC,1.16
24,AACTCTTTTC,1.34
25,AACTGATTCT,1.03
26,AACTGCTTAT,0.972

row,Sequence,switch fluorescence ratio
1,AACTGGATCG,1.09
2,AACTGGGAGG,1.02
3,AACTGGTGCG,0.953
4,AACTGGTTAC,1.01
5,AACTTATACT,1.02
6,AACTTCCGA,2.58
7,AACTTCCTTC,2.19
8,AACTTGAGGT,0.934
9,AACTTGGTTC,0.991
10,AACTTGTGTC,0.99
11,AACTTTGAGT,1.03
12,AACTTTGTCC,1.03
13,AAGAAAACAT,1.01
14,AAGAACAGGA,1.02
15,AAGAACGGCA,1.05
16,AAGAAGAACC,1.06
17,AAGAAGAATG,0.984
18,AAGAAGGT,1
19,AAGAATAACG,1
20,AAGAATATGA,0.944
21,AAGAATGTTT,0.986
22,AAGACAAAAA,0.993
23,AAGACAACTT,1.05
24,AAGACAATCA,0.989
25,AAGACACATT,0.99
26,AAGACACGTC,0.932

row,Sequence,switch fluorescence ratio
1,AAGACAGGTT,1.03
2,AAGACCAATA,1.07
3,AAGACCCTG,1.06
4,AAGACGTTAA,1.06
5,AAGACTAA,0.994
6,AAGACTAGCT,0.992
7,AAGAGAATAT,0.992
8,AAGAGAATG,0.998
9,AAGAGATAAT,0.978
10,AAGAGATCTT,1.06
11,AAGAGCCTGG,0.967
12,AAGAGTAGTC,0.945
13,AAGAGTCGGT,0.972
14,AAGAGTTGGA,1.04
15,AAGATGCCTC,0.963
16,AAGATGTTGA,0.981
17,AAGATTCTAG,0.961
18,AAGCAAAA,1.07
19,AAGCAAATCA,1.01
20,AAGCACTAAG,1.22
21,AAGCAGAGAG,0.959
22,AAGCAGCTCC,1.35
23,AAGCAGGCAG,1.03
24,AAGCATGAGT,1.01
25,AAGCATGCGT,0.94
26,AAGCCAGGAT,1

row,Sequence,switch fluorescence ratio
1,AAGCCATACT,1.97
2,AAGCCGACTT,0.975
3,AAGCCTACTG,1.01
4,AAGCCTTGT,0.995
5,AAGCGAATTT,1.04
6,AAGCGACTGG,0.997
7,AAGCGCCAAC,1.1
8,AAGCGCCCGT,1.03
9,AAGCGCCGTG,1.05
10,AAGCGGCTAT,1.02
11,AAGCGGGGTT,1.04
12,AAGCGTATTA,0.995
13,AAGCGTTGGC,1.02
14,AAGCGTTTGC,1.04
15,AAGCTACGGG,1.05
16,AAGCTATTTA,1.02
17,AAGCTCAGCA,1.04
18,AAGCTCCATC,1.03
19,AAGCTGGGTA,0.984
20,AAGCTGTATA,1.02
21,AAGCTGTGTT,1.04
22,AAGCTTCAT,1.16
23,AAGCTTGGCG,0.911
24,AAGCTTGTCT,1.06
25,AAGCTTGTGG,0.98
26,AAGGACACAG,1.1

row,Sequence,switch fluorescence ratio
1,AAGGACTCAG,1.04
2,AAGGAGAATC,1.11
3,AAGGAGCAGC,0.783
4,AAGGAGCTGG,0.981
5,AAGGAGGAGT,1.24
6,AAGGAGTCAA,1.06
7,AAGGATTCGT,0.97
8,AAGGATTGC,1.01
9,AAGGCACGTA,1.06
10,AAGGCAGGGA,1.03
11,AAGGCCAAGG,1.01
12,AAGGCCAGCA,0.995
13,AAGGCCCTTC,0.979
14,AAGGCCTAGG,0.966
15,AAGGCCTTGG,1.11
16,AAGGCGAAAC,1.22
17,AAGGCGGTTT,1.01
18,AAGGCTAT,1
19,AAGGCTCACG,1.04
20,AAGGGAACAG,1
21,AAGGGAGC,1.01
22,AAGGGAGTTG,1.01
23,AAGGGATAAC,1.02
24,AAGGGATAGC,0.973
25,AAGGGATGGG,0.988
26,AAGGGCATTC,0.971

row,Sequence,switch fluorescence ratio
1,AAGGGCCACC,1.05
2,AAGGGCGGG,1.03
3,AAGGGCTAAG,1.01
4,AAGGGGAGAT,1.03
5,AAGGGGATAC,1.14
6,AAGGGGATGA,0.984
7,AAGGGGGTC,0.969
8,AAGGGGTCG,1.03
9,AAGGGTCCGA,1
10,AAGGGTTCCT,1.01
11,AAGGGTTTCA,1
12,AAGGTAAATC,1.01
13,AAGGTATATG,1.01
14,AAGGTATGTA,0.98
15,AAGGTCCTCA,1.01
16,AAGGTCGACA,1.02
17,AAGGTCGAGG,1
18,AAGGTCTGC,1.01
19,AAGGTGGAG,1.04
20,AAGGTGGAGG,0.991
21,AAGGTTCACA,0.995
22,AAGGTTCCGA,1.02
23,AAGGTTGATC,0.966
24,AAGGTTGCAG,0.974
25,AAGGTTGTAT,0.997
26,AAGTAAGATA,0.998

row,Sequence,switch fluorescence ratio
1,AAGTAAGGCA,1.04
2,AAGTAATTCG,0.948
3,AAGTACTCTC,1.3
4,AAGTAGCCC,0.997
5,AAGTAGCCGC,1.11
6,AAGTAGCGCA,1.01
7,AAGTAGCTT,1.01
8,AAGTATATAG,0.95
9,AAGTATCAGT,0.955
10,AAGTATTCGT,0.994
11,AAGTATTGAA,0.957
12,AAGTCAAGGA,1
13,AAGTCACATT,1.03
14,AAGTCCAGGC,1.18
15,AAGTCGTAAT,0.982
16,AAGTGACTTT,0.951
17,AAGTGAGGC,0.923
18,AAGTGATCT,0.99
19,AAGTGCACAC,1.01
